# These are yes or no findings as the source states them, for the method shown. In cells and extracts the contact can be indirect. Some entries that bind do so weakly or less than the wild type.
# T1: MNV NS7 (murine norovirus MNV-1 (strain CW1)) (UniProt Q80J95)
# T1 sequence: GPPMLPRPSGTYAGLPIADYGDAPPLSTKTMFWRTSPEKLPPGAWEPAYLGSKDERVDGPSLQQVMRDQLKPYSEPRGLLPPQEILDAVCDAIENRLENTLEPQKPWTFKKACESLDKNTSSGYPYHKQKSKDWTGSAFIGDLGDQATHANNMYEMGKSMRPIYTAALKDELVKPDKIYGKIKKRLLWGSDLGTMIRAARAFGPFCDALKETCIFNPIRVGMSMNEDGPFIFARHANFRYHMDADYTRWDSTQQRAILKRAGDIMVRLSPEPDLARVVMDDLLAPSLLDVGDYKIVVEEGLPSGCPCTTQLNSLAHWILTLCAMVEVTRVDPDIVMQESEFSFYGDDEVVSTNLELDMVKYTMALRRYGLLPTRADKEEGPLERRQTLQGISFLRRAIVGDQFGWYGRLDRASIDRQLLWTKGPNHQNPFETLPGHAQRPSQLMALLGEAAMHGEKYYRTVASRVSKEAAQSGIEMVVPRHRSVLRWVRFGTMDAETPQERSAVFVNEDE
# How the values were obtained:
# Assay in all cases: co-IP; LUMIER assay: protein A fusion (bait) and Renilla luciferase fusion (prey) co-transfected in HEK-293T cells, lysed after 24 h (PBS pH 7.4, 1% Triton X-100, 0.1% BSA, 1 mM DTT, benzonase), bait precipitated on anti-protein A magnetic beads for 90 min at 4 °C, six washes, bound luciferase activity read; robust Z-scores; in quadruplicate
# [1] = target: MNV NS3 (murine norovirus MNV-1 (strain CW1)) (UniProt Q80J95)
# [2] = target: MNV NS1/2 (murine norovirus MNV-1 (strain CW1)) (UniProt Q80J95)
# [3] = target: MNV NS4 (murine norovirus MNV-1 (strain CW1)) (UniProt Q80J95)
# [4] = target: T1, MNV NS7 (murine norovirus MNV-1 (strain CW1))
# [5] = target: MNV NS5 (murine norovirus MNV-1 (strain CW1)) (UniProt Q80J95)
Molecule,binding [1],binding [2],binding [3],binding [4],binding [5]
MNV NS1/2 (from UniProt Q80J95 1-341),binds,binds,binds,binds,
MNV NS3 (from UniProt Q80J95 342-705),binds,,binds,,
MNV NS4 (from UniProt Q80J95 706-870),,,binds,,
MNV NS5 (from UniProt Q80J95 871-994),,,,binds,
"MNV NS7 (enzyme, UniProt Q80J95 1178-1687) GPPMLPRPSGTYAGLPIADYGDAPPLSTKTMFWRTSPEKLPPGAWEPAYLGSKDERVDGPSLQQVMRDQLKPYSEPRGLLPPQEILDAVCDAIENRLENTLEPQKPWTFKKACESLDKNTSSGYPYHKQKSKDWTGSAFIGDLGDQATHANNMYEMGKSMRPIYTAALKDELVKPDKIYGKIKKRLLWGSDLGTMIRAARAFGPFCDALKETCIFNPIRVGMSMNEDGPFIFARHANFRYHMDADYTRWDSTQQRAILKRAGDIMVRLSPEPDLARVVMDDLLAPSLLDVGDYKIVVEEGLPSGCPCTTQLNSLAHWILTLCAMVEVTRVDPDIVMQESEFSFYGDDEVVSTNLELDMVKYTMALRRYGLLPTRADKEEGPLERRQTLQGISFLRRAIVGDQFGWYGRLDRASIDRQLLWTKGPNHQNPFETLPGHAQRPSQLMALLGEAAMHGEKYYRTVASRVSKEAAQSGIEMVVPRHRSVLRWVRFGTMDAETPQERSAVFVNEDE",,,,binds,
"MNV NS6 (enzyme, UniProt Q80J95 995-1177) APVSIWSRVVQFGTGWGFWVSGHVFITAKHVAPPKGTEIFGRKPGDFTVTSSGDFLKYYFTSAVRPDIPAMVLENGCQEGVVASVLVKRASGEMLALAVRMGSQAAIKIGSAVVHGQTGMLLTGSNAKAQDLGTIPGDCGCPYVYKKGNTWVVIGVHVAATRSGNTVIAATHGEPTLEALEFQ",no binding,no binding,no binding,no binding,no binding

# Source: article PMC6422069
